Results: PubChem BioAssay AID360 (National Center for Advancing Translational Sciences (NCATS), 2006)
In all, about 48,000 compounds went through this assay and about 550 (1.1%) were called active. Not shown: some 4% with an inconclusive outcome. Rule as the data show it: active = potency below about 15 µM; inconclusive = mostly about 16 µM to 33 µM; inactive = weaker than that. The list shows a part of the results.

Target: Lysosomal acid glucosylceramidase (Homo sapiens) (UniProt P04062)
Assay: Glucocerebrosidase;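 also: the screen sought inhibitors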
Settings: purified enzyme, resorufin glucoside fluorescence (screen aimed at inhibitors), 20 min
Summary of the method: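 Wild-type enzyme at 0.2 nM final in 50mM citric acid/KH2PO4, 10mM sodium taurocholate, 0.01% tween-20, pH 5.9, with resorufin beta-D-glucopyranoside at 30 uM final. Compounds titrated, 20 min at RT, red fluorescence read; AC50 from titration.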
Potency is read from the fitted curve at half-maximal effect.

Chain of UniProt P04062 (P04062 whole entry, looked up): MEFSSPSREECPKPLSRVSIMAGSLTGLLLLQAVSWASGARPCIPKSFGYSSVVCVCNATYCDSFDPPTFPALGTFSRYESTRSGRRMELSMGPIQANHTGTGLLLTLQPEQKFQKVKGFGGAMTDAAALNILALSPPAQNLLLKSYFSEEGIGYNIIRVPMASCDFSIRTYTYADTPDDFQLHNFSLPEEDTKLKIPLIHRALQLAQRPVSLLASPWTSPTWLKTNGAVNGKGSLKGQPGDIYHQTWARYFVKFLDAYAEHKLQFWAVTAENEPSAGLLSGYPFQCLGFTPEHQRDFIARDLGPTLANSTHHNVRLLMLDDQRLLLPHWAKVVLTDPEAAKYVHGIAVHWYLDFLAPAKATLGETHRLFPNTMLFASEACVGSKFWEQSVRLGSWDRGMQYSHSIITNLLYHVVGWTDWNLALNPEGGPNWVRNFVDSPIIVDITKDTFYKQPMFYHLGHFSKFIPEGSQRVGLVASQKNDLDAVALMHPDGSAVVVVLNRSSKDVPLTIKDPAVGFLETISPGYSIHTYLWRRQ

Potency, inactive:
Cc1ccc(C)c2[nH]c(=O)c(CN(Cc3nnnn3C3CCCCC3)CC3CCCO3)cc12 (centres undefined) > 76.9 µM
O=S(=O)(c1ccc(F)c(Cl)c1)N1CCCC1 > 76.9 µM
COc1ccc(CCNC(=O)C2CCN(Cc3nc(-c4ccccc4F)oc3C)CC2)cc1OC > 76.9 µM
CCOCCCn1c(SCC(=O)NC(C)(C)C)nc2ccccc2c1=O > 76.9 µM
CC(C)CCN1CCNC(=O)C1CC(=O)Nc1ccc(F)cc1 (centres undefined) > 76.9 µM
Cc1c[n+]([O-])n(-c2ccc(C(=O)O)cc2)n1 > 76.9 µM
CC1CCCCC1NC(=O)CN1C(=O)NC(C)(c2ccc(OC(F)F)cc2)C1=O (centres undefined) > 76.9 µM
COc1cc(C2/C(=C(\O)c3ccc4c(c3)CC(C)O4)C(=O)C(=O)N2CCCn2ccnc2)ccc1O (centres undefined) > 76.9 µM
CCN(CCCNC(=O)CN(C)S(=O)(=O)c1ccc2c(c1)CCC(=O)N2)c1cccc(C)c1 > 76.9 µM
CN(C)S(=O)(=O)c1cccc(C(=O)NCc2ccco2)c1 > 76.9 µM
N#Cc1nc(-c2cccs2)oc1N1CCOCC1 > 76.9 µM
CN(CC(=O)N1CCc2ccccc21)S(=O)(=O)c1cccs1 > 76.9 µM
CCOC(=O)C1=C(N)OC2=C(C(=O)CC(C)(C)C2)C1c1ccco1 (centres undefined) > 76.9 µM
COc1cccc(C(=O)NCC2CCN(c3ccc(S(=O)(=O)N4CCOCC4)cc3)CC2)c1 > 76.9 µM
COCc1cc(C)nc2sc(C(=O)OC(C)C)c(N)c12 > 76.9 µM
O=C(CCNS(=O)(=O)c1ccc(Br)s1)NC1CCCC1 > 76.9 µM
CC1Cc2ccccc2N1C(=O)Cn1nc(C(=O)O)c2ccccc2c1=O (centres undefined) > 76.9 µM
CC(OC(=O)c1cc2sccc2n1C)C(=O)NCc1ccc2c(c1)OCO2 (centres undefined) > 76.9 µM
O=C(NCCc1ccccc1)C1CCN(S(=O)(=O)c2ccc(-n3cnnn3)cc2)CC1 > 76.9 µM
COc1ccc2[nH]c(=O)c(CNC3CCCCC3)cc2c1 > 76.9 µM
CCOC(=O)C1=C(C)NC(=O)CC1c1ccccc1 (centres undefined) > 76.9 µM
O=C(NCc1cccnc1)c1ccc2c(c1)OCO2 > 76.9 µM
Cc1nc2ccc(NC(=O)N3CCSCC3)cc2s1 > 76.9 µM
O=C(O)CCCCCNS(=O)(=O)c1c(Cl)cccc1Cl > 76.9 µM
O=C(c1ccccc1)c1ccccc1C(=O)N1CCOCC1 > 76.9 µM
CCn1c2ccccc2c2cc(NC(=O)N3CCOCC3)ccc21 > 76.9 µM
O=C(CCCSc1nc2ccccc2[nH]1)NC1=NCCS1
COC(=O)C1=C(C)N(c2ccc(C(=O)OC)cc2)C(=O)C1 > 76.9 µM
CC(C)C(c1nnnn1Cc1ccco1)N1CCN(c2nc3ccccc3s2)CC1 (centres undefined) > 76.9 µM
CNC(=O)c1cccc(N2CCCC2=O)c1 > 76.9 µM
Cc1noc(C)c1CSc1nnc2c(C)cc3ccccc3n12 > 76.9 µM
Nc1nc(SCCOc2ccccc2)n[nH]1 > 76.9 µM
O=C(CSc1nc(-c2ccco2)cc(C(F)(F)F)n1)NCc1cccs1 > 76.9 µM
CCCS(=O)(=O)N1CCN(Cc2ccccc2C(F)(F)F)CC1 > 76.9 µM
CC(=O)NS(=O)(=O)c1ccccc1 > 76.9 µM
COc1cc2c(cc1OC)C(C(=O)NCC1COc3ccccc3O1)C(c1cccnc1)N(C)C2=O (centres undefined) > 76.9 µM
COc1cc(NC(=O)c2cc3nc(C)cc(C)n3n2)c(OC)cc1Cl
COC(=O)[C@@H](NC(=O)NCc1cccs1)C(C)C > 76.9 µM
CC(=O)Nc1cc(S(=O)(=O)C(F)(F)F)ccc1Cl > 76.9 µM
CC(C)(C)n1ncc2c(=O)n(CC(=O)NCc3ccccc3)cnc21 > 76.9 µM
CC(C)c1ccccc1NC(=O)c1cccnc1 > 76.9 µM
O=C(CSC1=NCCS1)N1CCN(c2ccccc2)CC1 > 76.9 µM
CCN(CC)C(=O)c1sc2nc(-c3ccc(OC)cc3)cn2c1C > 76.9 µM
CCn1c(SCC(=O)c2cc(OC)ccc2OC)nc2c1c(=O)n(C)c(=O)n2C > 76.9 µM
CC1CCc2c(sc3c2C2=NS(=O)(=O)CCN2C=N3)C1 (centres undefined) > 76.9 µM
Cc1cc(C(=O)CSc2nnc(-c3ccco3)o2)c(C)n1Cc1ccco1 > 76.9 µM
COc1ccc(CCN2CC34C=CC(O3)C(C(=O)NCc3ccccc3)C4C2=O)cc1OC (centres undefined) > 76.9 µM
O=C(CC(SCCO)c1ccc2c(c1)OCO2)c1ccco1 (centres undefined) > 76.9 µM
O=C(O)CCC(=O)OC1CC2CCC1C2 (centres undefined) > 76.9 µM
Fc1ccc(-c2csc3nnc(SCc4cccnc4)n23)cc1 > 76.9 µM
CC1CC(C)CN(C(=O)COC(=O)CNS(=O)(=O)/C=C/c2ccccc2)C1 (centres undefined) > 76.9 µM
N#Cc1nc(Cc2ccccc2)oc1N1CCC(Cc2ccccc2)CC1 > 76.9 µM
O=C(CSc1nc2nc[nH]c2c(=O)[nH]1)NC1CCCCC1 > 76.9 µM
CCN(C#N)c1nc(NC(C)C)nc(NC(C)C)n1 > 76.9 µM
c1ccc(-c2noc(-c3ccc4c(c3)OCO4)n2)nc1 > 76.9 µM
Cc1cccc(C(C)C)c1NC(=O)c1cccnc1 > 76.9 µM
CN(Cc1ccccc1)Cc1nc2c(c(=O)n(C)c(=O)n2C)n1CCc1ccccc1 > 76.9 µM
COc1cc2nc(C3CCC3)n(NC(=O)COc3ccccc3)c(=O)c2cc1OC > 76.9 µM
C=COCCNC(=O)Nc1ccc(Cl)cc1Cl > 76.9 µM
